Among all 48,000 compounds or so, about 120 (0.25%) were called active. Roughly 4% stayed inconclusive and do not appear here. Calls come from the whole dose curve; as a rule, active = well fitted activation curve with a large enough effect; inconclusive = small, poorly fitted or top-dose-only effect, or another doubt; inactive = no such curve, though single readings can be large or run the other way. Some of the results follow.
Assay: Primary qHTS for Identification of Small Molecule Activators of Huntingtin-Antisense Promoter Activity; note: nearly all actives have a fitted effect of over 55% in size
Settings: HEK293 HTT-AS promoter firefly luciferase reporter, 24 h; series mostly up to 57.5 µM; activity change, positive = activation: at the top concentration
Summary of the method: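 HEK293 cells carrying firefly luciferase reporters were seeded at 2,500 per well in Opti-MEM and cultured for 24 h. They were then treated with compounds at up to 57.5 uM final for 24 h at 37 degrees C before Dual-Glo luminescence readout.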
Potency is the fitted concentration of half-maximal effect.

| Structure (SMILES) | activity change, positive = activation | Potency |
| --- | --- | --- |
| Cc1ccc(C)c(Cn2c(C(=O)O)c(CNCc3cccs3)c3ccccc32)c1 | inactive: -29.9% |  |
| CC(=O)Nc1c(C)nn(-c2ccccc2)c1N1CCC(C(=O)NCc2ccccc2Cl)CC1 | inactive: 26.7% |  |
| Cc1ccc(S(=O)Cc2nc(-c3ccc(C(=O)NCc4cccc(C)c4)cc3)oc2C)cc1 (stereo not given) | inactive: -12.1% |  |
| O=C(CCn1nc(-c2ccc(Cl)cc2)ccc1=O)NCCc1ccccc1 | inactive: 8.81% |  |
| CCOC(=O)c1c(NC(=O)CSc2cn(CCNC(=O)c3c(F)cccc3F)c3ccccc23)sc2c1CCC2 | inactive: -21.3% |  |
| COc1ccc(CCN2C(=O)c3[nH]nc(-c4ccccc4O)c3C2c2ccc(OC)c(OC)c2)cc1 (stereo not given) | inactive: -32.8% |  |
| CCOC(=O)c1noc2ncnc(Nc3cccc(OC)c3)c12 | inactive: -3.18% |  |
| CCOC(=O)COc1ccc(F)cc1C(=O)c1ccn2nc(-c3ccc(Cl)cc3)cc2n1 | inactive: -11% |  |
| O=C(COc1ccccc1Cl)Nc1ccc2nc(SCC(=O)N3CCCC3)sc2c1 | inactive: -31.9% |  |
| CCOc1ccc(-n2c(SCC(N)=O)nc3c(oc4ccccc43)c2=O)cc1 | inactive: -28.9% |  |
| COc1cccc(NC(=O)CSc2nc(-c3ccccc3Cl)nc3c2Cc2c(CO)cnc(C)c2O3)c1 | inactive: -9.68% |  |
| COc1ccc(-c2cc(-c3ccccc3)nc(SCC(=O)Nc3ccccc3F)c2C#N)cc1 | inactive: -2.87% |  |
| CCOC(=O)C1=C(CS(=O)(=O)c2ccc(OC)c(Cl)c2)NC(=O)NC1c1cccc(OC)c1 (stereo not given) | inactive: -14.5% |  |
| Clc1cccc(Cl)c1NC1=NCCN1 | inactive |  |
| O=C(CCCc1ccccc1)NC1CC(=O)N(c2ccc(F)cc2)C1 (stereo not given) | inactive: -12.8% |  |
| CC(=O)c1cccc(NS(=O)(=O)c2cc3c(cc2C)N(C(C)=O)CCO3)c1 | inactive: -5.63% |  |
| Cc1ccc(NC(=O)N2CCC(CN3CCCC3)CC2)c(C)c1 | inactive: -12.4% |  |
| Cc1ccc(-c2nc(C(=O)NCc3ccccc3Cl)c3n2CCCCC3)cc1 | inactive: -33.4% |  |
| CCc1cccc(NC(=O)c2ccc(NC(=O)N3CCSc4ncccc43)cc2)c1 | inactive: -14.3% |  |
| Cc1ccc(NC(=O)N2CCN(c3cc(-c4noc(C)n4)ccc3C)CC2)c(F)c1 | inactive: -36.4% |  |
| CCC(=O)Oc1ccc(C2Nc3ccccc3-c3nnc(SC)nc3O2)cc1 (stereo not given) | inactive: -8.03% |  |
| CN1N=C(C(N)=O)CCC1=O | inactive: 1.69% |  |
| Cc1ccc2nc(-c3cc(NC(=O)COc4ccc(C)c(C)c4)ccc3Cl)oc2c1 |  | active: 2510 nM |
| O=C1[C@H]2CCCC[C@H]2C(=O)N1CCCCN1CCN(c2nsc3ccccc23)CC1 | inactive: 1.82% |  |

| Structure (SMILES) | activity change, positive = activation | Potency |
| --- | --- | --- |
| COC(=O)C1CCN(S(=O)(=O)c2ccc(N3CCCCS3(=O)=O)cc2)CC1 | inactive: -17.6% |  |
| COC(=O)c1cc(C)nc2c1c(=O)nc(SCc1ccccc1C)n2C1CC1 | inactive: -26.5% |  |
| Cc1ccc(C(=O)NCC(c2ccc3c(c2)OCO3)N2CCOCC2)cc1 (stereo not given) | inactive: -9.9% |  |
| CCc1nn(CCCC(=O)N2CCN(c3cccc(OC)c3)CC2)c(=O)c2cc3occc3n12 | inactive: -16.8% |  |
| Cc1c(-c2nc(-c3ccc4c(c3)OCO4)no2)nnn1-c1ccc(C(C)C)cc1 | inactive: -3.29% |  |
| Cc1cccc(NC(=O)C(Cc2ccccc2)NS(=O)(=O)c2ccc3c(c2)c(=O)n(C)c(=O)n3C)c1 (stereo not given) | inactive: -9.15% |  |
| COc1ccc(Nc2ncnc3onc(-c4ccc(Cl)cc4)c23)cc1Cl | inactive: -37.9% |  |
| Cc1ccc(NC(=O)c2cn(-c3ccccc3)nc2-c2ccccc2)cc1 | inactive: -14.6% |  |
| CCCCn1c(SCC(=O)Nc2cccc(OC)c2)nc2ccsc2c1=O | inactive: -29.9% |  |
| O=C(NCc1ccccc1)c1ccc(NC(=O)N2CCSc3ncccc32)cc1 | inactive: -32.6% |  |
| COc1cc(OC)c(NC(=O)c2cnn(-c3cccc(Cl)c3C)c2C2CCN(C(=O)OC(C)(C)C)CC2)cc1Cl | inactive: -0.465% |  |
| COc1ccc(-n2cc(-c3ccccc3)c3c(NCc4cccc(Cl)c4)ncnc32)cc1 | inactive: -13.7% |  |
| Cc1ccc(C2=NN(CC(=O)NC(C)c3ccccc3)C(=O)CC2)cc1 (stereo not given) | inactive: -4.59% |  |
| CCOC(=O)c1c(NC(=O)COc2cccc(C)c2C)sc2c1CCCCC2 | inactive: -13.7% [at 11.5 µM, percent change from vehicle, -100% = no light] |  |
| COc1ccc(NC(=O)C2CCC(CNS(=O)(=O)c3csc(C(N)=O)c3)CC2)cc1 (stereo not given) | inactive: -18.5% |  |
| CC(C)c1ccc(Nc2c(-c3ccc(N4CCOCC4)cc3)nc3ncccn23)cc1 | inactive: -10.4% |  |
| Cc1ccc(Cn2ccn(Cc3cccc(C(F)(F)F)c3)c(=O)c2=O)cc1 | inactive: -9.93% |  |
| COc1cccc(NC(=O)CSc2nc3c([nH]c4ccccc43)c(=O)n2-c2cccc(Cl)c2)c1 | inactive: -1.88% |  |
| Cc1ccc(-c2ccc(=O)n(CC(=O)Nc3ccc(C(C)C)cc3)n2)cc1 | inactive: -8.72% |  |
| CCOC(=O)c1ccc(NC(=O)CSc2nc(C)c(Cc3ccccc3)c(=O)[nH]2)cc1 | inactive: -19.5% |  |
| C=CCOc1ccc(C2c3c(oc4ccc(C)cc4c3=O)C(=O)N2CCCN2CCOCC2)cc1 (stereo not given) | inactive: -3.38% |  |
| COc1ccccc1NC(=O)c1c(C)cc(C)nc1SCC(=O)Nc1cccc(C)c1 | inactive: -22.7% |  |
| COCCNC(=O)CCn1c(=O)c2cc(OC)c(OC)cc2n(CC(=O)Nc2ccccc2OC)c1=O | inactive: -19.5% |  |
| Cc1ccc(-n2nc(C)c3c(C)cc(=O)n(CC(=O)NC(C)C)c32)cc1 | inactive: -3.24% |  |

| Structure (SMILES) | activity change, positive = activation | Potency |
| --- | --- | --- |
| CCc1cccc(CC)c1N(COC)C(=O)Cn1c(C)nc2ccccc21 | inactive: -67.6% |  |
| CCN(CC)CCOC(=O)c1ccc(NC(=O)CSc2cc(=O)n(CC)c3ccccc23)cc1 | inactive: 9.51% |  |
| O=C(Nc1ccc(F)c(Cl)c1)C1Cc2ccccc2CN1S(=O)(=O)c1ccc(F)cc1 (stereo not given) | inactive: -27.8% |  |
| CCc1nn(CC(=O)Nc2ccc(C)cc2C)c(=O)c2cc3sccc3n12 | inactive: -3.06% |  |
| CCOc1ccccc1CNC(=O)CCCn1c(=O)c2cccn2c2cccnc21 | inactive: -6.71% |  |
| Clc1ccc(N2CCN(Cc3nnc(-c4ccc5c(c4)OCO5)o3)CC2)cc1 | inactive: -2.7% |  |
| COc1ccc(-c2cccc(NS(=O)(=O)c3cccs3)c2)nn1 | inactive: 2.53% |  |
| CN(C)CCOC(=O)C(c1ccccc1)C1(O)CCCC1 (stereo not given) | inactive: -1.63% |  |
| COc1ccc(NC(=O)C2=C(C)Nc3c(C(=O)Nc4ccc(C)cc4)cnn3C2c2cccc(Cl)c2)cc1 (stereo not given) | inactive: -5.91% |  |
| CCCCN(CC)C(=O)c1c[nH]c2ccc(S(=O)(=O)Nc3cccc(OC)c3)cc2c1=O | inactive: -9.3% |  |
| COc1ccc(NC(=O)CC2Nc3cccc4cccc(c34)NC2=O)cc1 (stereo not given) | inactive: -22.6% |  |
| Cc1ccc2oc(-c3cccc(NC(=O)c4cccc5c(Br)cccc45)c3)nc2c1 | inactive: 16.4% |  |
| Cc1ccc2onc(CC(=O)N3CCN(c4ccccc4F)CC3)c2c1 | inactive: -7.09% |  |
| CCc1cc(Cl)c(OC)c(C(=O)NC[C@@H]2CCCN2CC)c1O | inactive: -4.54% |  |
| COc1ccc(-c2cc(C)no2)cc1S(=O)(=O)N1CCN(c2ccc(C(C)=O)cc2)CC1 | inactive: -18.2% |  |
| Clc1ccccc1CSc1nncn2c1cc1occc12 | inactive: 3.83% |  |
| O=C(CCCn1c(=O)c2cccn2c2ccccc21)Nc1cccc(Cl)c1 | inactive: -36.6% |  |
| COc1ccc(-c2onc(C)c2C)cc1S(=O)(=O)Nc1ccc(OC(F)(F)F)cc1 | inactive: -37.6% |  |
| Cc1ccc(CSc2oc(-c3ccco3)nc2S(=O)(=O)c2ccc(Cl)cc2)cc1 | inactive: -8.13% |  |
| CCOC(=O)c1cccc(NC(=O)c2cc(S(=O)(=O)N3CCCC3)cn2C)c1 | inactive: -19.5% |  |
| CCOC(=O)CNC(=O)c1cc2c(=O)n(CC)c3ccccc3c2s1 | inactive: -3.78% |  |
| COC(=O)c1cc2sc(C)cc2n1Cc1ccccc1 | inactive: -12.7% |  |
| Cc1ccc(CNC(=O)CSc2ccc(-c3sc(-c4ccccc4)nc3C)nn2)cc1 | inactive: -12.8% |  |
| CCCOC(=O)c1ccc(NC(=O)Cn2nnc3sc4c(c3c2=O)CCC(C(C)(C)C)C4)cc1 (stereo not given) | inactive: -11.2% |  |

| Structure (SMILES) | activity change, positive = activation | Potency |
| --- | --- | --- |
| CCCOc1ccc(/C=C/C(=O)Nc2sc3c(c2C(=O)OCC)CCC(C)C3)cc1OC (stereo not given) | inactive: -15.6% |  |
| O=S(=O)(c1ccc(Br)cc1)c1nc(-c2ccco2)oc1SCc1ccccc1F | inactive: -13.6% |  |
| COc1ccc(NC(=O)c2ccco2)cc1NC(=O)C(C)Oc1ccc(Cl)cc1Cl (stereo not given) | inactive: -35.1% |  |
| CCOc1ccc(CCNC(=O)CN2C(=O)c3cccnc3Oc3ccc(C)cc32)cc1OCC | inactive: -10.9% |  |
| O=C(Nc1cccc(C(F)(F)F)c1)c1cc2nc(-c3ccccc3)cc(C(F)(F)F)n2n1 | inactive: -12.7% |  |
| CCCOc1ccc(-c2cccc(NS(=O)(=O)c3cccs3)c2)nn1 | inactive: 6.31% |  |
| COc1ccc(CCNC(=O)CCc2c(C)nc3c(-c4ccc(F)cc4)c(C)nn3c2C)cc1OC | inactive: -8.7% |  |
| CC1=C(C(=O)OC2CCCCCC2)C(c2ccccc2Cl)CC(=O)N1 (stereo not given) | inactive: -32.9% |  |
| CCc1ccc(NC(=O)CN(c2ccc(C)cc2)S(=O)(=O)c2c(C)nn(C)c2C)cc1 | inactive: -15.9% |  |
| COCCCNC(=O)N1CCN(c2nnc(C)c3c(C)n(-c4ccc(Cl)cc4)nc23)CC1 | inactive: -3.85% |  |
| CCOc1cccc(CC(=O)N2CCc3c([nH]c4ccccc34)C2c2ccc(OC)cc2)c1OCC (stereo not given) | inactive: -16.1% |  |
| COc1ccc(Cn2c(C(=O)O)c(CNCCc3cccs3)c3ccc(OC)cc32)cc1 | inactive: -17.4% |  |
| Cc1oc2ncn(C)c(=O)c2c1C(=O)N1CCN(c2ccc(Cl)cc2)CC1 | inactive: -13.6% |  |
| COc1ccc(-c2c(C)nn3c(C(F)(F)F)cc(C)nc23)cc1OC | inactive: -24% |  |
| COc1cccc(CNCCCSc2nnnn2C)c1 | inactive: -18.7% |  |
| Cc1ccccc1CN1C(=O)c2ccccc2S(=O)c2ccc(C(=O)NCc3ccccc3)cc21 (stereo not given) | inactive: -2.23% |  |
| COc1ccc(C(=O)NCC(c2cccnc2)N2CCN(c3ccccc3F)CC2)cc1OC (stereo not given) | inactive: -24.1% |  |
| CCCc1nn2c(=O)cc(COC(=O)c3ccccc3NC(=O)C3CCCCC3)nc2s1 | inactive: -21.4% |  |
| CC(C)(C)NCC(O)COc1ccccc1OCC1CCCO1 (stereo not given) | inactive: -7.46% |  |
| Cc1ccc(NC(=O)C2CCN(S(=O)(=O)c3cccs3)CC2)cc1 | inactive: -25.2% |  |
| COC(=O)c1c(C)sc(-c2c(-c3ccc(F)cc3)[nH]c3[nH]c(=O)[nH]c(=O)c23)c1O | inactive: -13% |  |
| CCC(=O)O[C@]1(C(=O)SCF)[C@H](C)C[C@H]2[C@@H]3C[C@H](F)C4=CC(=O)C=C[C@]4(C)[C@@]3(F)[C@@H](O)C[C@@]21C | inactive |  |
| Cc1ccc(CNC(=O)c2cnn3c(C)c(Cc4c(F)cccc4Cl)c(C)nc23)cc1 | inactive: 10.9% |  |
